Experimental data reported in article PMC6919601, “Identification of Plasmodium dipeptidyl aminopeptidase allosteric inhibitors by high throughput screening” (PLoS ONE, 2019).
Screen size: about 110,000 compounds; about 230 (0.21%) showed an effect of 50% or more. The list shows a part of the results.

The molecules below were run against DPAP1 (Plasmodium falciparum, UniProt Q8IIJ9) (assay: primary screen, percent inhibition; read by cleavage of a fluorogenic dipeptide substrate; higher = more effect of the substance).
Parameters: species or system P. falciparum D10 trophozoite lysates; single well
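Note: 30 min substrate incubation versus DMSO and 10 µM JCP410 controls.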

Chain of DPAP1 (Q8IIJ9 whole entry, looked up): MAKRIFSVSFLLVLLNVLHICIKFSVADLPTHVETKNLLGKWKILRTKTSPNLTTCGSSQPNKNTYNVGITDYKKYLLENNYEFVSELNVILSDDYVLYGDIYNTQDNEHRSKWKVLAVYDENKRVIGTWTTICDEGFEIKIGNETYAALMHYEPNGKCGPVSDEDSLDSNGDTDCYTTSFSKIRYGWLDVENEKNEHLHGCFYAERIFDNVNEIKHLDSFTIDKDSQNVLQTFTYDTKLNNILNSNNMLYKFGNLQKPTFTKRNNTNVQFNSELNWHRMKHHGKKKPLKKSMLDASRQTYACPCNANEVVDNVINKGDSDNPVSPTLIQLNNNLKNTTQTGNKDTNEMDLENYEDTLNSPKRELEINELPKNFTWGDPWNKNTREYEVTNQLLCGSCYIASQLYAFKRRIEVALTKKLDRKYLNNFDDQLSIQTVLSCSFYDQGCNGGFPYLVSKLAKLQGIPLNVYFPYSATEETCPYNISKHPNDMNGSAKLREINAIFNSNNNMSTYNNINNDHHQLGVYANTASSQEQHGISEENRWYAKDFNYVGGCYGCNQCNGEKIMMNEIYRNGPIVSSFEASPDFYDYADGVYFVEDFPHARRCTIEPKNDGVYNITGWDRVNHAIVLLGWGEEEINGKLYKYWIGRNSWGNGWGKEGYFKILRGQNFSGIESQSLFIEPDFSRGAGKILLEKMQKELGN

| Compound | % Inhibition @ 10 uM [%] |
| --- | --- |
| CCOc1ccc(-c2csc(/C(C#N)=C\Nc3ccccc3)n2)cc1 | 3.53 |
| Cc1ccc(NC(=O)CSc2n[nH]c(-c3ccncc3)n2)c(C)c1 | -4.36 |
| CC(Cc1c[nH]c2ccccc12)NC(=O)c1ccc(Cl)cc1 (centres unmarked) | -7.42 |
| CN(C)c1ccc(CNCCC2(O)CCOC(C)(C)C2)cc1 (centres unmarked) | 5.05 |
| COc1cc(C(=O)Nc2cccc(C#N)c2)cc(OC)c1OC | -1.84 |
| O=c1c2ccccc2n2nncc2n1Cc1ccccc1F | 3.7 |
| CCOC(=O)CSc1nc(O)cc(C)c1C#N | -0.736 |
| Cc1ccccc1-c1nc(CSCC(=O)N2CCOCC2)c(C)o1 | -10.7 |
| CC(=O)Nc1nonc1-c1nc2ccccc2n1CCCC#N | 21.3 |
| Cc1nn(-c2ccccc2)c2c1N(CC(=O)N1CCCCCC1)C(=O)CS2 | -5.33 |
| Cc1ccccc1NC(=O)CC1NC2CCCCC2NC1=O (centres unmarked) | 3.72 |
| CCc1cccc2c(C#N)cn(CC(=O)NCCCOC)c12 | -1.84 |
| COc1ccc(C2C3=C(CCCC3=O)OC3=C2C(=O)CCC3)cc1 | 2.4 |
| CC(Oc1ccccc1)C(=O)Nc1ccccn1 (centres unmarked) | 4.31 |
| O=C1NC2(CCN(C(=O)Cc3ccc(F)cc3)CC2)N=C1c1ccccc1 | -1.6 |
| Cc1nc2ccc(S(=O)(=O)N(C)CC(=O)NCCC(C)C)cc2s1 | 5.84 |
| O=C(O)c1ccc(S(=O)(=O)N2CCCC3CCCCC32)cc1 (centres unmarked) | 2.73 |
| O=C(O)CCn1ccnc1-c1ccccc1 | 5.23 |
| CN1CCc2c(sc3c2C(=O)NC(c2ccccc2F)N3)C1 (centres unmarked) | -3.04 |
| CCN1C(=O)/C(=C/c2cccn2C)C(=O)NC1=S | 5.31 |
| Nc1ccc2nc(SCc3ccc(F)cc3)sc2c1 | -4.4 |
| COC(=O)Nc1ccc(S(=O)(=O)N2CCN(c3ccccc3OC)CC2)cc1 | -5.13 |

| Compound | % Inhibition @ 10 uM [%] |
| --- | --- |
| O=C(NCCNC(=O)C1CC2CCC1C2)C1CC2CCC1C2 (centres unmarked) | -0.865 |
| Oc1nc(SCCOc2ccccc2)nc2ccccc12 | -2.03 |
| O=C1C2CCCCC2C(=O)N1c1ccc(F)cc1 (centres unmarked) | -2.89 |
| O=C(C1=C(O)C(=O)N(CC2CCCO2)C1c1ccc(Br)cc1)c1ccccc1 (centres unmarked) | -5.1 |
| CCOc1ccccc1C(=O)Nc1cccc(C(F)(F)F)c1 | -3.74 |
| Cc1ccsc1CCNC(=O)CCCc1nnc2n(C)c(=O)c3sccc3n12 | -3.01 |
| COc1ccc(C2CC(=O)N=C(N)N2)c(OC)c1OC (centres unmarked) | 1.66 |
| CCCn1c(=N)c(C(=O)NCCN2CCOCC2)cc2c(=O)n3cccc(C)c3nc21 | 3.6 |
| O=C1c2cccc3cccc(c23)C(=O)N1n1cnnc1 | 3.54 |
| CSc1nc2ccccc2c(=O)n1CC1CCCCC1 | -1.35 |
| CCOc1cc2c(cc1OCC)C(c1ccc(OC)c(O)c1)NCC2 (centres unmarked) | 3.57 |
| CC(C)/N=C(\NS(=O)(=O)c1ccc(Cl)cc1)c1ccc(Br)cc1 | -5.38 |
| COc1ccc(C(=O)C2=C(O)C(=O)N(CCCCCC(=O)O)C2c2ccc3c(c2)OCO3)cc1 (centres unmarked) | -3.02 |
| Clc1ccccc1CN1CCN(C/C=C/c2ccccc2)CC1 | -0.0404 |
| CC(=O)N1CN(CCCn2ccnc2)Cc2c1sc1c2CCCC1 | 0.221 |
| CCOC(=O)c1nnn(-c2nonc2N)c1CSc1nc(C)cc(C)n1 | 15.9 |
| CC(C)(C)NS(=O)(=O)c1ccc(OCC(=O)Nc2cccc(F)c2)cc1 | 1.39 |
| O=C1Cc2ccccc2C(c2ccc(Cl)cc2)N1 (centres unmarked) | -3.35 |
| COc1ccc(CCNCc2cccc(C(F)(F)F)c2)cc1 | -0.582 |
| CCOC(=O)c1cc2c(=O)n3ccccc3nc2n(CCOC)/c1=N/C(=O)c1ccncc1 | -1.2 |
| O=C(Nc1ccccc1C(F)(F)F)C1CC(=O)N(c2ccccc2)C1 (centres unmarked) | 3.67 |
| Cc1ccc(-n2cnnn2)cc1S(=O)(=O)NC(C)(C)C | 4.57 |

| Compound | % Inhibition @ 10 uM [%] |
| --- | --- |
| COc1ccc(-c2[nH]nc3c2C(c2cccnc2)NC3=O)cc1 (centres unmarked) | -5.22 |
| COc1ccc(S(=O)(=O)NCCSCc2ccccc2)c(Cl)c1Cl | -1.84 |
| COc1ccc2c(c1)CC/C(=C/c1ccco1)C2=O | 8.9 |
| C=CCSc1nc(O)c(C(c2ccccc2)c2ccccc2)c(O)n1 | 1.14 |
| CCCC12CCC(=O)C=C1CCCC2=O (centres unmarked) | -2.32 |
| CCN(CCN(C)C)C1CCCCCC1 | 4.28 |
| CCOCCCNC(=O)Cn1ncc2c(C)n(Cc3ccc(F)cc3)c(C)c2c1=O | -0.447 |
| Cc1cc(N2CCOCC2)ccc1/C=C1\SC(=O)N(C(C)C)C1=O | -0.0619 |
| Cc1ccccc1C(=O)Nc1ccc(Cl)c(Cl)c1 | -2.54 |
| CC1=C(C(=O)Nc2ccccc2)C(c2cccs2)C(C#N)=C(SCc2ccccc2)N1 (centres unmarked) | -2.44 |
| CCCOc1ccc(N2C(=O)CC(N3CCOCC3)C2=O)cc1 (centres unmarked) | 1.22 |
| O=C(NCc1ccco1)c1ccccc1NC(=O)C1CCCCC1C(=O)O (centres unmarked) | 0.843 |
| Cc1cccc(NC(=O)c2ccc([N+](=O)[O-])cc2)c1C | -0.268 |
| Cc1sc2ncn3cnnc3c2c1C | 0.774 |
| CC(NC(=O)COCc1cc(-c2ccc3c(c2)OCO3)on1)c1ccccc1 (centres unmarked) | 6.27 |
| O=C(O)C1CC=CCC1C(=O)NC1CCCCCCC1 (centres unmarked) | 0.161 |
| COc1ccc(NC(=O)C2COc3ccccc3O2)cc1OC (centres unmarked) | 4.37 |
| CC(=O)N1CCC(NC(Cc2ccccc2)c2ccccc2)CC1 (centres unmarked) | 1.9 |
| CCOc1ccc(/C=c2\sc3nc(-c4ccccc4C)nn3c2=O)cc1OC | 0.561 |
| COc1ccc(C2NC(=O)NC3=C2CCc2ccccc23)cc1 (centres unmarked) | -1.33 |
| O=S(=O)(Nc1cc(Cl)cc(Cl)c1)c1ccc(Cl)cc1 | -1.84 |
| COc1cc(C2C3=C(O)CC(C)(C)CC3=NC(C)=C2C(=O)Nc2ccc(F)cc2F)ccc1O (centres unmarked) | -1.86 |

| Compound | % Inhibition @ 10 uM [%] |
| --- | --- |
| COc1ccc(C2C3=C(O)CCCC3=Nc3nc(-c4ccccc4C)nn32)cc1 (centres unmarked) | -5.15 |
| Cc1ccc(C#N)c(SCc2cc3c(cc2Cl)OCO3)n1 | -8.15 |
| CC(C1CC1)N(Cc1ccccc1)C(=O)NC(=O)c1cccc(F)c1 (centres unmarked) | 2.41 |
| Cc1cc(C)c(NC(=O)CN(c2cc(Cl)ccc2Cl)S(C)(=O)=O)c(C)c1 | 2.43 |
| O=C(NCc1ccco1)c1ccc2ccccc2n1 | -1.43 |
| COC(=O)c1sccc1S(=O)(=O)N1CCN(Cc2ccccc2)CC1 | -6.31 |
| Cc1ccc(OCC(=O)Nc2cccc3ccccc23)cc1 | -0.95 |
| Fc1ccccc1N1CCN(Cc2ccc(Br)cc2)CC1 | 1.38 |
| COC(=O)c1ccc(/C=C/C(O)=C2/C(=O)N(C)C3(C)CC2c2cc(Br)ccc2O3)cc1 (centres unmarked) | 1.91 |
| Cc1ccc(Nc2nn(CCC#N)c(=S)n2-c2ccc(C)cc2)cc1 | 0.0345 |
| CC(C)(C)c1ccc(C(=O)Nc2sc3c(c2C(=O)NC2CCS(=O)(=O)C2)CCCC3)cc1 (centres unmarked) | 1.88 |
| OC1CCN(Cc2ccc(F)c(F)c2)CC1 | -6.36 |
| C(=C\c1ccccc1)/CNCCCSc1nnnn1-c1ccccc1 | -2.88 |
| Cc1ccccc1C(=O)Nc1ccc(-c2cn3ccsc3n2)cc1 | 1.37 |
| Cc1oc2ncn(C)c(=O)c2c1C(=O)N1CCC(Cc2ccccc2)CC1 | -9.84 |
| Cc1ccccc1Cn1cnc2ccccc21 | 1.8 |
| O=C(Cc1ccccc1)n1cnc2ccccc21 | 2.14 |
| COc1cccc(NC(=O)C2CC2(c2ccc(C)cc2)c2ccc(C)cc2)c1 (centres unmarked) | -5.47 |
| CN(C)CCN(C)Cc1c[nH]c2ccccc12 | -3.27 |
| CCn1c(COc2cccc3cccnc23)nc2ccccc21 | 4.94 |
| COCc1cc(C)nc2sc(C(=O)NC3CCCCC3)c(N)c12 | -2.87 |
| CSC1=NSC2=NC(=O)/C(=C\c3ccccc3Cl)C(=N)N12 | 5.5 |

| Compound | % Inhibition @ 10 uM [%] |
| --- | --- |
| CNC(=O)Cn1c2ccccc2c2cnnc(O)c21 | 3 |
| C=CCOc1ccc(/C=c2\sc3nc(-c4cc(OC)c(OC)c(OC)c4)nn3c2=O)cc1 | -1.18 |
| CCCOc1ccc(-c2nonc2NC(=O)COc2cccc(C)c2)cc1OCCC | -3.47 |
| CCCCCC1CCC(C2CCC(C(=O)O)CC2)CC1 (centres unmarked) | 0.98 |
| c1ccc(Oc2cc(-c3ccccc3)ncn2)cc1 | -2.82 |
| c1ccc(C2N3CCCN23)cc1 (centres unmarked) | -1.08 |
| O=S(=O)(NCCc1ccc(Cl)cc1)c1ccc(-c2ccc(O)nn2)s1 | -1.97 |
| O=C1NCCN/C1=C\C(=O)c1ccccc1 | -4.35 |
| Cc1cc(C)cc(-n2nnc(-c3nsc(NC(=O)c4cccs4)n3)c2C)c1 | -4.14 |
| CCC1CCCCN1Cc1ccc(OC)c(C)c1 (centres unmarked) | 4.28 |
| Cc1ccc(CSc2nc(C)cc(C)c2C#N)cc1 | -0.413 |
| CC(=O)N(Cc1ccco1)C1CC(=O)N(c2ccc(Br)cc2)C1=O (centres unmarked) | 1.34 |
| Cc1cc(C)c2ccc(C(=O)O)nc2c1O | -7.35 |
| O=C(Nc1ccccc1Oc1ccccc1)c1ccc2c(c1)OCO2 | -4.33 |
| O=C(NCc1ccccc1)C1CCCN1C(=O)OCc1ccccc1 (centres unmarked) | -1.65 |
| CCOc1ccccc1N1CCN(Cc2ccc(C(F)(F)F)cc2)CC1 | 0.847 |
| Cc1occc1-c1nnc2sc(/C=C/c3ccc(F)cc3)nn12 | 3.46 |
| CCC(C)NC(=O)C(=O)NCCc1ccccc1 (centres unmarked) | -0.0648 |
| C(=C\c1cccs1)/C1=NN(c2ccccc2)C(c2cccs2)C1 (centres unmarked) | -9.41 |
